From the supplement of paper PMC5998384

Experiments:
HeLa Kyoto [1] = test: thermal stability score vs G1/S (z-score of summed log2 fold changes over temperatures); higher = more thermally stable than in G1/S
HeLa Kyoto [2] = test: solubility change mitosis vs G1/S (difference of NP-40 vs SDS log2 ratios) (log2 ratio difference); higher = more soluble in mitosis
HeLa Kyoto [3] = test: solubility in G1/S (NP-40 vs SDS abundance) (log2 ratio); higher = more soluble; conditions: cell cycle stage: G1/S
HeLa Kyoto [4] = test: melting temperature (median over replicates), in situ; higher = more thermally stable
[5] = cell cycle stage: early G1 (4.5 h after nocodazole release)
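Wherever melting temperature (median over replicates), in situ is given: HeLa Kyoto cells synchronized by double thymidine or nocodazole block, proteins quantified by TMT10plex mass spectrometry, three independent biological replicates.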
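Wherever solubility change mitosis vs G1/S (difference of NP-40 vs SDS log2 ratios) is given: synchronized HeLa Kyoto cells (double thymidine block for G1/S, nocodazole release for mitosis), protein amounts in NP-40 versus SDS lysates quantified by mass spectrometry, three biological replicates.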
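Wherever solubility in G1/S (NP-40 vs SDS abundance) is given: HeLa Kyoto cells arrested at G1/S by double thymidine block, proteins quantified by TMT10plex mass spectrometry in mild NP-40 versus SDS extracts, three biological replicates.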
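Wherever thermal stability score vs G1/S (z-score of summed log2 fold changes over temperatures) is given: synchronized HeLa Kyoto cells, proteins quantified by TMT10plex mass spectrometry, three biological replicates, mitosis taken 0.5 h after nocodazole release, G1/S directly after double thymidine block.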

| Substance | thermal stability score (HeLa Kyoto [1]; [5]) | thermal stability score (HeLa Kyoto [1]; cell cycle stage: mitosis) | solubility change mitosis (log2) (HeLa Kyoto [2]) | solubility in G1/S (log2) (HeLa Kyoto [3]) | melting temperature (HeLa Kyoto [4]; cell cycle stage: G1/S) | melting temperature (HeLa Kyoto [4]; cell cycle stage: mitosis) |
| --- | --- | --- | --- | --- | --- | --- |
| AIFM1 (sequence left out) | -0.277 | -2.42 | -0.0597 | -0.0455 | 57.2 °C | 56.6 °C |
| ANXA11 (sequence left out) | 6.32 | 3.34 | -0.0255 | 0.51 | 49.7 °C | 49.9 °C |
| CCNT1 (sequence left out) | -0.151 | 0.079 | 0.0923 | -0.202 | 49.4 °C | 50.7 °C |
| COX7C (sequence left out) | – | – | 0.382 | -1.31 | 57.4 °C | – |
| DSC2 (sequence left out) | 1.57 | 1.77 | -0.18 | -0.135 | 54 °C | 53.3 °C |
| EEF1G (sequence left out) | -1.32 | 1.53 | -0.104 | 0.0423 | 50.7 °C | 50.2 °C |
| ENO1 (sequence left out) | -1.37 | -2.11 | -0.0594 | 0.304 | 56.7 °C | 56.4 °C |
| EXOC1 (sequence left out) | 0.396 | 0.824 | -0.0858 | 0.0898 | 49.7 °C | 49.6 °C |
| FGF2 (sequence left out) | -0.938 | -1.72 | 0.153 | -0.559 | – | – |
| HSP90B1 (sequence left out) | 3.97 | 4.85 | -0.0824 | -0.00846 | 54.1 °C | 55.4 °C |
| IGF2R (sequence left out) | -2.44 | -3.51 | -0.0908 | -0.085 | 56.9 °C | 56.4 °C |
| ITGB1 (sequence left out) | -1.06 | -0.105 | -0.0191 | -0.0956 | 56.6 °C | 57.9 °C |
| MSH6 (sequence left out) | 3.69 | 7.53 | -0.117 | -0.194 | 47.7 °C | 49.2 °C |
| MTEESSDVPRELIESIKDVIGRKIKISVKKKVKLEVKGDKVENKVLVLTSCRAFLVTARIPTKLELTFSYLEIHGVVCSKSAQMIVETEKCSISMKMASPEDVSEVLAHIGTCLRKIFPGLSPVRIMKKVSMEPSERLASLQALWDSQTVAEQGPCGGFSQMYACVCDWLGFSYREEVQWDVDTIYLTQDTRELNLQDFSHLDHRDLIPIIAALEYNQWFTKLSSKDLKLSTDVCEQILRVVSRSNRLEELVLENAGLRTDFAQKLASALAHNPNSGLHTINLAGNPLEDRGVSSLSIQFAKLPKGLKHLNLSKTSLSPKGVNSLSQSLSANPLTASTLVHLDLSGNVLRGDDLSHMYNFLAQPNAIVHLDLSNTECSLDMVCGALLRGCLQYLAVLNLSRTVFSHRKGKEVPPSFKQFFSSSLALMHINLSGTKLSPEPLKALLLGLACNHNLKGVSLDLSNCELRSGGAQVLEGCIAEIHNITSLDISDNGLESDLSTLIVWLSKNRSIQHLALGKNFNNMKSKNLTPVLDNLVQMIQDEESPLQSLSLADSKLKTEVTIIINALGSNTSLTKVDISGNGMGDMGAKMLAKALQINTKLRTVIWDKNNITAQGFQDIAVAMEKNYTLRFMPIPMYDASQALKTNPEKTEDALQKIENYLLRNHETRKYLQEQAYRLQQGIVTSTTQQMIDRICVKVQDHLNSLRNCGGDAIQEDLKSAERLMRDAKNSKTLLPNLYHVGGASWAGASGLLSSPIQETLESMAGEVTRVVDEQLKALLESMVDAAENLCPNVMKKAHIRQDLIHASTEKISIPRTFVKNVLLEQSGIDILNKISEVKLTVASFLSDRIVDEILDALSHCHHKLADHFSRRGKTLPQQESLEIELAEEKPVKRSIITVEELTEIERLEDLDTCMMTPKSKRKSIHSRMLRPVSRAFEMEFDLDKALEEVPIHIEDPPFPSLRQ[skipping about 120 residues]KSERPPTILMTEEPSSPKGAVRSPPVDCPRKDTKAAEHNGNSERIEEIKTPDSFEESQGEEIGKVERSDSKSSPQAGRRYGVQVMGSGLLAEMKAKQEKRAACAQKKLGNDAVSQDSSSPALSGVERSDGGGAVPKLHPGLPENRFGLGTPEKNTKAEPKAEAGSRSRSSSSTPTSPKPLLQSPKPSLAARPVIPQKPRTASRPDDIPDSPSSPKVALLPPVLKKVPSDKERDGQSSPQPSPRTFSQEVSRRSWGQQAQEYQEQKQRSSSKDGHQGSKSNDSGEEAEKEFIFV [LRRC16A] | -0.67 | 1.41 | -0.11 | -0.0493 | 54.5 °C | 54.6 °C |
| MUC1 (sequence left out) | -1.25 | -0.51 | – | – | – | – |
| MYH10 (sequence left out) | -1.09 | -1.94 | 0.00352 | -0.539 | 52 °C | 51.7 °C |

| Substance | thermal stability score (HeLa Kyoto [1]; [5]) | thermal stability score (HeLa Kyoto [1]; cell cycle stage: mitosis) | solubility change mitosis (log2) (HeLa Kyoto [2]) | solubility in G1/S (log2) (HeLa Kyoto [3]) | melting temperature (HeLa Kyoto [4]; cell cycle stage: G1/S) | melting temperature (HeLa Kyoto [4]; cell cycle stage: mitosis) |
| --- | --- | --- | --- | --- | --- | --- |
| NDUFA10 (sequence left out) | -0.476 | 0.657 | 0.00144 | 0.0364 | 50 °C | 50.2 °C |
| NDUFB8 (sequence left out) | – | – | 0.213 | -0.0495 | – | – |
| NDUFS1 (sequence left out) | -0.389 | -0.12 | -0.0606 | 0.0623 | 51.4 °C | 51.8 °C |
| NEDD8 (sequence left out) | -1.8 | -2.5 | 0.312 | -0.415 | 54.3 °C | – |
| PCF11 (sequence left out) | – | – | 0.0692 | -0.00629 | 49.2 °C | 48.8 °C |
| PSMC4 (sequence left out) | 1.38 | 0.496 | -0.138 | 0.316 | 53.9 °C | 53.5 °C |
| ROR1 (sequence left out) | – | – | -0.00946 | 0.0441 | – | – |
| RPS6KA5 (sequence left out) | – | – | -0.117 | -0.0552 | – | – |
| RPS6KB1 (sequence left out) | 0.051 | -0.087 | 0.0814 | -0.0413 | – | – |
| SNRPA (sequence left out) | -2.56 | -4.69 | 0.241 | 0.194 | 55.8 °C | 55.2 °C |
| STIM1 (sequence left out) | 0.613 | 0.513 | 0.159 | 0.408 | 52.3 °C | 52.2 °C |
| STIM2 (sequence left out) | – | – | -0.12 | 0.14 | – | – |
| SUMO2 (sequence left out) | – | – | 0.314 | -0.482 | 54.4 °C | – |
| TFG (sequence left out) | 0.358 | -1.66 | 0.0166 | 0.0963 | 56.1 °C | 56.3 °C |
| TPI1 (sequence left out) | -1.62 | -2.8 | 0.0652 | 0.483 | 57.2 °C | 56.4 °C |
| YAP1 (sequence left out) | – | – | 0.176 | 0.206 | 56.1 °C | 52.7 °C |
